Source: PubChem BioAssay AID1745853 (National Center for Advancing Translational Sciences (NCATS), 2022)
Some of the results follow. Shown are side measurements of this screen, not its main read-out; they come without a call.

How the values were obtained:
Assay in all cases: Primary Screen for Target Class Profiling of Small Molecule Inhibitors of Methyltransferases
[1] = target: Glycine N-methyltransferase (Homo sapiens) (UniProt Q14749); conditions: purified enzyme, MTase-Glo SAH luminescence; measured here: GNMT inhibition; at 40 µM; stronger effect = lower value
How it was run: (§1)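 Each enzyme was assayed with SAM and its substrate. SAH formation detected by MTase-Glo luminescence; single-point 40 uM screen[…].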

[2] = target: Guanidinoacetate N-methyltransferase (Homo sapiens) (UniProt Q14353); conditions: purified enzyme, MTase-Glo SAH luminescence; measured here: GAMT inhibition; at 40 µM; stronger effect = lower value
How it was run: as §1

[3] = target: Histamine N-methyltransferase (Homo sapiens) (UniProt P50135); conditions: purified enzyme, MTase-Glo SAH luminescence; measured here: HNMT inhibition; at 40 µM; stronger effect = lower value
How it was run: as §1

[4] = target: Nicotinamide N-methyltransferase (Homo sapiens) (UniProt P40261); conditions: purified enzyme, MTase-Glo SAH luminescence; measured here: NNMT inhibition; at 40 µM; stronger effect = lower value
How it was run: as §1

[5] = target: Phenylethanolamine N-methyltransferase (Homo sapiens) (UniProt P11086); conditions: purified enzyme, MTase-Glo SAH luminescence; measured here: PNMT inhibition; at 40 µM; stronger effect = lower value
How it was run: as §1
% is set by controls: 0 for no effect and ±100 for the full control effect.

Row | SMILES | activity change, negative = inhibition [1] [%] | activity change, negative = inhibition [2] [%] | activity change, negative = inhibition [3] [%] | activity change, negative = inhibition [4] [%] | activity change, negative = inhibition [5] [%]
1 | COCCn1c(C)nnc1-c1cc(-c2ccc(OC)c(OC)c2)ccn1 | -14.2 | -13.3 | -9.77 | -20.4 | -13.6
2 | CC1(C(=O)NC2CCCC2)Cn2c(ccc2-c2ccco2)C(=O)N1Cc1ccccc1Cl (stereo not drawn) | -3.79 | 1.97 | -1.85 | -8.78 | -2.51
3 | COCCn1c(C)cnc1CCNS(=O)(=O)Cc1ccccc1F | -3.05 | -2.45 | -0.891 | -5.94 | -16.5
4 | Cc1ccc(Cn2c(=O)c3ccccc3n3c(CCC(=O)NCC(C)c4ccccc4)nnc23)cc1 (stereo not drawn) | -10.2 | 0 | 2.56 | -29.5 | -0.983
5 | O=C(O)CCC(=O)N1CC[C@@H]2[C@H]1C(=O)N(c1ccc(F)c(Cl)c1)C(=O)N2Cc1ccccc1 | -1.86 | 2.56 | 0.88 | 2.72 | 7.88
6 | Cc1ccc(C2(C(=O)N3C[C@@H](CN4CCCCC4)[C@@H](CO)C3)CC2)cc1 | -8.65 | -14.4 | -13.9 | -8 | -6.28
7 | COc1ccc2nc3n[nH]c(C)c3c(NCCOCCO)c2c1 | -69.2 | -49.5 | -80.6 | -54.8 | -64.6
8 | Cc1ccc(C)c(NS(=O)(=O)c2cc(C(=O)Nc3ccccc3-c3ccccc3)ccc2C)c1 | 4.04 | -10.7 | 8.21 | -24.4 | -9.75
9 | CC(C)CCn1c(=O)c2ccc(C(=O)NC3CCCC3)cc2n2c(=O)n(Cc3cccc(F)c3)nc12 | 3.72 | 0 | 5.28 | 3.66 | 5.36
10 | COC(=O)[C@@H]1Cc2nc[nH]c2CN1C1CCOCC1 | -3.69 | -7.47 | -2.51 | -10 | -9.21
11 | CC1(C)CC2C3=CCC4[C@@]5(C)CC[C@H](OC6OCC(O)C(OC7OC(CO)C(O)C(O)C7O)C6O)C(C)(C)C5CC[C@@]4(C)[C@]3(C)C[C@H](O)[C@@]2(CO)[C@H](OC(=O)c2ccccc2)C1 (stereo partly drawn) | -2.35 | 2.72 | 5.82 | -14.4 | -11.6
12 | CC(C)OCCCn1c(=O)c2cc(Cl)ccc2n2c(SCc3ccc(Cl)cc3)nnc12 | 3.9 | 0 | 6.23 | -1.54 | 0.073
13 | CC1(C(=O)NC2CCCCCC2)Cn2c(cc3sccc32)C(=O)N1CCc1ccc(Cl)cc1 (stereo not drawn) | 1.9 | 2.52 | 4.46 | -3.27 | -0.238
14 | c1cc(-c2n[nH]c(CC3CCNC3)n2)ccn1 (stereo not drawn) | -5.95 | -9.09 | -5.92 | -10.6 | -12.9
15 | CCC(C)N1CCN(C(=O)Cn2c(=O)oc3cc(S(=O)(=O)NCc4ccccc4)ccc32)CC1 (stereo not drawn) | 12.3 | 0.806 | -0.841 | -0.412 | 4.49
16 | COc1cc2c(CCNC(C)=O)c[nH]c2cc1Cl | -6.16 | 13.5 | 10.9 | -2.42 | 5.16
17 | COc1ccc(CN2C(=O)c3cc(-c4ccccc4)nn3CC2(C)C(=O)NCc2ccccc2)cc1OC (stereo not drawn) | 0.143 | 4.69 | 1.96 | -17.8 | -4.58
18 | CC1(C(=O)NC2CCCCCC2)Cn2c(c(-n3cccc3)c3cc(F)ccc32)C(=O)N1Cc1cccc(F)c1 (stereo not drawn) | -2.95 | 4.82 | -0.779 | -0.581 | -3.83
19 | COCCNC(=O)C1COC2(CCN(C(=O)C3CC3)CC2)N1C(=O)c1cccc(OC)c1 (stereo not drawn) | 0.761 | -2.65 | 2.54 | -5.18 | -3.48

Row | SMILES | activity change, negative = inhibition [1] [%] | activity change, negative = inhibition [2] [%] | activity change, negative = inhibition [3] [%] | activity change, negative = inhibition [4] [%] | activity change, negative = inhibition [5] [%]
20 | Cn1cc(CN2C[C@@H]3C[C@H](C2)c2ccc(NS(=O)(=O)c4cccc(F)c4)c(=O)n2C3)c2ccccc21 | -10.7 | -5.76 | -16.9 | -10.6 | -7.58
21 | Cc1cccc(COc2ccc3c(-c4ccccc4)cc(=O)oc3c2)c1 | -4.27 | 6.78 | -1.18 | 1.81 | -3.54
22 | CC(C)CCn1c(=O)c2ccccc2n2c(CCC(=O)NCCc3ccc(Cl)cc3)nnc12 | 0.782 | 0 | 10.9 | 13 | 2.37
23 | CN(C)[C@@H]1CN(Cc2ccc(C#N)cc2)C[C@H]1CO | -0.884 | 1.09 | -2.84 | -5.69 | 13.5
24 | COCc1ccc(C(=O)N2CCCC(CCc3cccc(OC)c3)C2)o1 (stereo not drawn) | -6.18 | -3.64 | -0.745 | -9.17 | -18.9
25 | COCC1(C(=O)N2CCN(C)C3(CCNC(=O)CC3)C2)CCC1 (stereo not drawn) | -3.07 | -3.48 | -1.44 | -3.64 | -2.46
26 | COc1cccc(-c2ccccc2NC(=O)C2CCN(CC=C(C)C)CC2)c1 | -3.23 | -0.779 | -51.7 | -11.1 | -3.13
27 | CC(C)c1ccc2c(c1)CCC1[C@](C)(C(=O)O)CCC[C@]21C (stereo partly drawn) | -4.42 | 0.715 | 10.5 | -16.9 | 0.768
28 | C=Cc1ccc(Cn2nc3n(Cc4ccccc4)c(=O)c4ccc(C(=O)NCC(C)C)cc4n3c2=O)cc1 | 5.21 | 0 | 9.75 | 5.31 | 8.5
29 | CC1CCN(S(=O)(=O)c2ccc3c(c2)oc(=O)n3CC(=O)N2CC(C)CC(C)C2)CC1 (stereo not drawn) | -0.428 | 0 | 0.677 | -0.708 | -1.89
30 | COc1cccc(OC)c1C(=O)N[C@@H]1C(=O)N2[C@@H]1SC(C)(C)[C@@H]2C(=O)O | -1.89 | -6.35 | 7.07 | -9.23 | 4.32
31 | CCOC(=O)c1cc2n(n1)CC(C)(C(=O)NCc1ccccc1)N(Cc1cc(OC)ccc1OC)C2=O (stereo not drawn) | 0.355 | 2.57 | -5.25 | 1.47 | 1.38
32 | Cc1ccc(S(=O)(=O)NC(=O)NN2CCCCCC2)cc1 | -9.75 | 2.18 | -1.17 | -5.71 | 6.34
33 | CCN1C(=O)c2c(C(=O)NCc3ccccc3OC)ncn2CC1(C)C(=O)NC1CCCC1 (stereo not drawn) | -4.85 | -9.59 | 2.04 | -7.17 | -3.02
34 | Cc1ccc(NC(=O)Cn2c(=O)c3ccc(Cl)cc3n3nncc23)cc1 | -6.64 | 0.738 | -4.83 | -12.4 | -7.15
35 | CCN1C(=O)c2cc(C(=O)NCCCOC(C)C)nn2CC1(C)C(=O)NC1CCCC1 (stereo not drawn) | 7.92 | 0 | -2.73 | 11.4 | 5.38
36 | O=C1NC(Nc2ccccc2)=N/C1=C\c1ccc2c(c1)OCO2 | – | -8.46 | – | -19.1 | -2
37 | C=CCn1c(=O)c2ccc(C(=O)NCC(C)C)cc2n2c(=O)n(CC(=O)Nc3cccc(F)c3)nc12 | 2.29 | 0 | 1.63 | 1.43 | 2.77
38 | Cc1ccc(S(=O)(=O)c2nnn3c2nc(NCc2ccc(F)cc2)c2ccccc23)cc1 | -9.81 | 5.67 | -4.71 | -7.13 | -10.2
